Measured values as given in PubChem BioAssay AID720709 (National Center for Advancing Translational Sciences (NCATS), 2013).
“And” between values parts separate entries of the source, which are not always exact repeats. Equal entries are not always repeated. The whole screen tested about 360,000 compounds, of which about 520 (0.14%) were called active. The shares of active, inactive and inconclusive entries below differ from those in the screen. Calls follow the shape of the dose curve; as a rule, active = well fitted inhibition curve with a large enough effect; inconclusive = small, poorly fitted or top-dose-only effect; inactive = no such curve, though single readings can be large or run the other way. Potencies beside an inconclusive call are fits to weak or partial responses and may not hold up.
Also: nearly all actives have a fitted effect of over 50% in size.
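For activity change, negative = inhibition in this document: plate controls were vehicle for no effect and positive control for full effect.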
Potency is read from the fitted curve at half-maximal effect; tags tell the direction and shape of the fitted curve.

These molecules were tested against Rap guanine nucleotide exchange factor 3 (Homo sapiens) (UniProt O95398) (assay: qHTS for Antagonist of cAMP-regulated guanine nucleotide exchange factor 3 (EPAC1): primary screen). Settings: EPAC1 GEF assay, Rap1b-BODIPY-GDP exchange fluorescence; activity change, negative = inhibition: at 115 µM (top of the series).
UniProt O95398, sequence (O95398 whole entry, looked up): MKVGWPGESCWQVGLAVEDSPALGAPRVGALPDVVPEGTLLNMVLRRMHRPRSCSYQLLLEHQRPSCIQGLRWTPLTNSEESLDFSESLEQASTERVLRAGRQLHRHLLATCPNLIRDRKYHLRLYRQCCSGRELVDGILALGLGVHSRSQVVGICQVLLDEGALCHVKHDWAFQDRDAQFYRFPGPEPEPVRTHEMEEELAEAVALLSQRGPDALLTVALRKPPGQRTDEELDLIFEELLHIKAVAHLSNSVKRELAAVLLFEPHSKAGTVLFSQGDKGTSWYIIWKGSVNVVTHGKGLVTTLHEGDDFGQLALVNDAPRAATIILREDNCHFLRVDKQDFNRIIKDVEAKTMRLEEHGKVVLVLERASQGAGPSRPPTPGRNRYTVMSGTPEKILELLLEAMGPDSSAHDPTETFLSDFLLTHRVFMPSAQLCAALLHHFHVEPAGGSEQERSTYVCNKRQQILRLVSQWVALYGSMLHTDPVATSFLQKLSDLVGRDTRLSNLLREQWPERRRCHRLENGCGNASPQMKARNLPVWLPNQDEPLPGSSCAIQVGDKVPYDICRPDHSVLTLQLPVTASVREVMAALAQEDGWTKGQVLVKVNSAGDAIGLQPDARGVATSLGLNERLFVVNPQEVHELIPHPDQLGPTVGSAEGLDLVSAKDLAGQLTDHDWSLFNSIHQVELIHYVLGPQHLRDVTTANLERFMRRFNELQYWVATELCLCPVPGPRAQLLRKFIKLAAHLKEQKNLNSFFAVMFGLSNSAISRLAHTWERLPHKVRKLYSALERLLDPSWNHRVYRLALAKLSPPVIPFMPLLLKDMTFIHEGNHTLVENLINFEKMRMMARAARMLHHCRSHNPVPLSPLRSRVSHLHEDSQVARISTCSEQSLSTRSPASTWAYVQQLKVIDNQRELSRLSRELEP
Cc1ccc(OCCn2cccc2/C=C2/C(=O)NC(=O)N(Cc3ccco3)C2=O)cc1 was tested, and the Potency was inconclusive: 17.8 µM [inhibitor, partial curve].
O=C(O)Cc1cnc[nH]1 was tested, and the “activity change, negative = inhibition” value was inactive: -8.03%.
CCOc1ccc(N2C(=O)/C(=C/c3ccc(C)o3)C(=O)NC2=S)cc1 was tested, and the Potency was inconclusive: 56.2 µM [inhibitor, partial curve].
With COc1ccccc1N=Nc1ccc(N)c(C)c1 the Potency was inconclusive: 100 µM [inhibitor, single point].
In the case of Cc1cccc(N=Nc2ccc(N(C)C)cc2)c1, the Potency is reported as inconclusive: 89.1 µM [inhibitor, single point].
In the case of CC1CCN(C(=O)COC(=O)c2cn(C)c3ccccc23)CC1, the Potency is reported as inconclusive: 56.2 µM [inhibitor, single point].
In the case of COC1CC2C=C(C)C=CC=CC(=O)NC(c3ccccc3)CC=CCCC(O)CC(=O)C2=C1O (stereo not drawn), the Potency is reported as inconclusive: 100 µM [inhibitor, partial curve].
With CN1CCN(c2c(N)c(=O)oc3ccccc23)CC1 the “activity change, negative = inhibition” value was inactive: 19%.
With Cc1cccc(CN2CCN(C(=O)Cc3ccccc3)CC2)c1 the Potency was inconclusive: 50.1 µM [inhibitor, partial curve].
In the case of COc1cccc(OCC(=O)N2CCN(C)CC2)c1, the “activity change, negative = inhibition” value is reported as inactive: -1.13%.
In the case of CN(C)[C@@H]1C(=O)C(C(N)=O)=C(O)[C@@]2(O)C(=O)C3=C(O)c4c(O)cccc4[C@@](C)(O)[C@H]3[C@H](O)[C@@H]12, the Potency is reported as inconclusive: 7.94 µM [inhibitor, full curve] and inconclusive: 31.6 µM [inhibitor, partial curve].
For CCCCn1c(O)c(C(=O)/C=C/c2ccc3c(c2)OCO3)c(=O)[nH]c1=O, the Potency was inconclusive: 17.8 µM [inhibitor, full curve, poor fit].
Cc1cc(/C=C2\C(=O)NC(=O)N(c3ccc(Cl)cc3)C2=O)c(C)n1-c1sc2c(c1C#N)CCCC2 was tested, and the Potency was active: 50.1 µM.
With Cc1ccccc1-n1c(O)c(/C=N/NC(=O)c2ccncc2)c(=O)[nH]c1=O the activity change, negative = inhibition was inconclusive: -21.6% [inhibitor].
With O=C1NCN(c2ccccc2)C12CCN(C(c1ccnc3ccccc13)c1nnnn1-c1ccc3c(c1)OCCO3)CC2 (stereo not drawn) the “activity change, negative = inhibition” value was inactive: -17.8%.
For Nc1ccc2c(c1)oc1ccccc12, the “activity change, negative = inhibition” value was inactive: 14.3%.
In the case of O=C1NC(=O)N(Cc2ccco2)C(=O)/C1=C/c1cccn1CCOc1ccccc1Cl, the Potency is reported as inconclusive: 50.1 µM [inhibitor, partial curve].
With Cc1cccc(N2C(=O)NC(=O)/C(=C/c3ccc(N4CCOCC4)cc3)C2=O)c1 the Potency was inconclusive: 89.1 µM [inhibitor, single point].
For CCc1ccc(N2C(=O)NC(=O)/C(=C/c3cccn3CCOc3ccc(C(C)CC)cc3)C2=O)cc1 (stereo not drawn), the Potency was inconclusive: 100 µM [inhibitor, single point].
COc1ccc(OCCn2cc(/C=C(\C#N)C(=O)NCc3ccco3)c3ccccc32)cc1 was tested, and the Potency was inconclusive: 25.1 µM [inhibitor, single point].
COc1ccc(C2CC(c3c(O)n(CCc4ccccc4)c(=O)[nH]c3=O)=NN2)cc1OC (stereo not drawn) was tested, and the Potency was inconclusive: 8.91 µM [inhibitor, partial curve].
With CC(=O)Nc1ccc(N(C(=O)Cn2nnc3ccccc32)C(C(=O)NC2CCCC2)c2ccc(O)c(O)c2)cc1 (stereo not drawn) the Potency was inconclusive: 28.2 µM [inhibitor, full curve].
C=CC[C@@H](CC(=O)N[C@H](CO)Cc1ccccc1)C(=O)NCCOC(=O)[C@@H](CC=C)Cc1ccc(F)cc1 was tested, and the Potency was inconclusive: 39.8 µM [inhibitor, partial curve].
With CC(C)(C)c1csc(NC(=O)Nc2ccccc2)n1 the Potency was inconclusive: 112 µM [inhibitor, partial curve, poor fit].
In the case of CC12CC[C@H]3[C@@H](CCC4(O)C[C@H](O)CCC34/C=N/NC(=O)c3ccccc3[N+](=O)[O-])C1(O)CCC2C1=CC(=O)OC1 (stereo partly drawn), the Potency is reported as inconclusive: 89.1 µM [inhibitor, partial curve, poor fit].
In the case of CCOC(=O)C1(CCc2ccccc2)CCN(Cc2cccc3c2OCO3)CC1, the “activity change, negative = inhibition” value is reported as inactive: -4.65%.
In the case of COc1cc2c(cc1OC)C1C(=O)c3ccc4c(c3OC1CO2)CC(C(C)C)O4 (stereo not drawn), the Potency is reported as inconclusive: 25.1 µM [inhibitor, single point].
For C=CCn1cc(C=C2C(=O)NC(=O)NC2=O)c2ccccc21, the Potency was inconclusive: 100 µM [inhibitor, partial curve, poor fit].
In the case of CCOC(=O)c1c(N)n(Cc2ccco2)c2nc3ccccc3nc12, the “activity change, negative = inhibition” value is reported as inactive: 1.89%.
In the case of COc1ccc(-c2cc(=Nc3cccc(C(=O)O)c3)c3cc(C)ccc3o2)cc1, the Potency is reported as inconclusive: 89.1 µM [inhibitor, single point].
For C=CCc1ccc(OCCn2nnc3ccccc32)c(OC)c1, the Potency was inconclusive: 100 µM [inhibitor, partial curve].
In the case of O=C(NCC1=C(c2cccc3ccccc23)C[C@@H]2CC[C@H]1N2Cc1ccco1)c1ccc([N+](=O)[O-])cc1, the “activity change, negative = inhibition” value is reported as inactive: -17.3%.
For CC(C)(C)P(=O)(NCc1ccccc1)c1ccccc1 (stereo not drawn), the Potency was inconclusive: 44.7 µM [inhibitor, partial curve].
With O=C(c1cc(-c2ccc(Cl)cc2)n(-c2ccc(Cl)cc2Cl)n1)N1CCOCC1 the “activity change, negative = inhibition” value was inactive: -4.4%.
CC(C)OP(=O)(OC(C)C)C(Nc1ccccc1)c1ccccc1C(F)(F)F (stereo not drawn) was tested, and the Potency was inconclusive: 22.4 µM [inhibitor, full curve, poor fit].
In the case of Cc1ccc(/C=C2/C(=O)NC(=O)N(CCc3ccc(F)cc3)C2=O)o1, the Potency is reported as inconclusive: 89.1 µM [inhibitor, single point].
With Cn1c(O)c(C(=Nc2ccccc2)SCc2ccc(Cl)cc2)c(=O)n(C)c1=O the “activity change, negative = inhibition” value was inactive: -19.2%.
In the case of Cn1cccc1/C=C1/C(=O)NC(=O)N(Cc2ccc(F)cc2)C1=O, the Potency is reported as inconclusive: 35.5 µM [inhibitor, partial curve].
In the case of Cc1c(C=O)c2ccccc2n1Cc1ccccc1, the “activity change, negative = inhibition” value is reported as inactive: -14.5%.
CN1CCN(c2ccc(S(C)(=O)=O)cc2[N+](=O)[O-])CC1 was tested, and the “activity change, negative = inhibition” value was inactive: -1.3%.
N#CCCn1cc(C(=O)O)c(-c2cccc([N+](=O)[O-])c2)n1 was tested, and the Potency was inconclusive: 50.1 µM [inhibitor, partial curve].
CCOC(=O)[C@]12Cc3ccccc3[C@H]1N(Cc1ccccc1)C(=O)c1cc(OC)ccc12 was tested, and the “activity change, negative = inhibition” value was inactive: -23.9%.
With Cc1ccc(N2C(=O)NC(=O)/C(=C\c3cc(C)n(-c4sc5c(c4C#N)CCCC5)c3C)C2=O)cc1 the Potency was active: 17.8 µM.
In the case of OCc1cnc[nH]1, the “activity change, negative = inhibition” value is reported as inactive: -12.2%.
For COc1cc(-n2c(=S)[nH]c3ccc(C)cc3c2=O)c(Cl)cc1Cl, the Potency was inconclusive: 56.2 µM [inhibitor, single point].
In the case of Cc1ccc(/C=C2\C(=O)NC(=S)N(c3ccccc3F)C2=O)s1, the Potency is reported as inconclusive: 100 µM [inhibitor, single point].
For O=C(O)CCC(=O)NCCC1=c2ccccc2=N/C1=C\c1c(O)n(Cc2ccc(F)cc2)c(=S)[nH]c1=O, the Potency was inconclusive: 70.8 µM [inhibitor, partial curve].
C/C(=N\NC(=O)c1ccccc1)c1c(O)n(C2CCCCC2)c(=O)[nH]c1=O was tested, and the Potency was inconclusive: 89.1 µM [inhibitor, partial curve].
With COc1ccccc1N1C(=O)NC(=O)/C(=C/c2ccc([N+](=O)[O-])s2)C1=O the Potency was inconclusive: 63.1 µM [inhibitor, partial curve, poor fit].
COc1ccc(C(=O)C2CCCN(Cc3cnc(C)s3)C2)c(OC)c1 (stereo not drawn) was tested, and the Potency was inconclusive: 2.82 µM [inhibitor, full curve, poor fit].
CCOc1cccc(OCC)c2c(C)[n+](CC3CCCO3)c(C)c1-2 (stereo not drawn) was tested, and the Potency was inconclusive: 50.1 µM [inhibitor, partial curve].
For CC1CCC(C(C)C)C(OC(=O)COC(=O)c2ccccc2N)C1 (stereo not drawn), the Potency was inconclusive: 79.4 µM [inhibitor, partial curve, poor fit].
In the case of CCOC(=O)[C@]12Cc3cc(OC)ccc3[C@H]1N(Cc1ccccc1)C(=O)c1cc(OC)ccc12, the “activity change, negative = inhibition” value is reported as inactive: -12.9%.
With COC(=O)C1=C(c2ccc(Cl)c(C(F)(F)F)c2)C[C@@H]2CC[C@H]1N2C(=O)N1CCC(C)CC1 the “activity change, negative = inhibition” value was inactive: 2.34%.
O=C1NC(=O)[C@]2(Cc3ccccc3N3CCN(c4ccccc4)CC32)C(=O)N1c1ccccc1 (stereo partly drawn) was tested, and the Potency was inconclusive: 89.1 µM [inhibitor, single point].
For O=C(c1ccc(C(F)(F)F)cc1)C1CCCN(Cc2ccc(CO)o2)C1 (stereo not drawn), the Potency was inconclusive: 79.4 µM [inhibitor, single point].
In the case of CCN1C(=O)C(=C/C=C/c2ccco2)C(=O)N(CC)C1=S, the Potency is reported as inconclusive: 12.6 µM [inhibitor, full curve].
C=CCCC[C@@H]1OC(=O)CNC(=O)C([C@@H](C)CC)NC(=O)[C@@H]2CCCN2C(=O)C([C@@H](C)CC)OC(=O)[C@H](Cc2ccccc2)N(C)C(=O)[C@H](C(C)C)NC(=O)C1(C)C (stereo partly drawn) was tested, and the Potency was inconclusive: 89.1 µM [inhibitor, partial curve, poor fit].
For CCCCn1c(N)c(C(=O)OCC2CCCO2)c2nc3ccccc3nc21 (stereo not drawn), the “activity change, negative = inhibition” value was inactive: 5.42%.
With Nc1ccccc1C(=O)OCc1ccc([N+](=O)[O-])cc1 the Potency was inconclusive: 3.16 µM [inhibitor, full curve, poor fit].
COc1cccc(-n2c(O)c(C=Nc3c(C)n(C)n(-c4ccccc4)c3=O)c(=O)[nH]c2=O)c1 was tested, and the “activity change, negative = inhibition” value was inactive: 4.82%.
With NC(N)=Nc1ccc2[nH]c3c(c2c1)C[C@@]1(O)[C@H]2Cc4ccc(O)c5c4[C@@]1(CCN2CC1CC1)[C@H]3O5 the “activity change, negative = inhibition” value was inactive: -10.2%.
For CN1CCN2c3ccc(N)cc3CC3(C(=O)NC(=O)NC3=O)C2C1 (stereo not drawn), the Potency was inconclusive: 89.1 µM [inhibitor, single point].
